Assay [1] addresses T1, ZED1^V212T (Arabidopsis thaliana) (UniProt Q8LGB6).
T1 sequence: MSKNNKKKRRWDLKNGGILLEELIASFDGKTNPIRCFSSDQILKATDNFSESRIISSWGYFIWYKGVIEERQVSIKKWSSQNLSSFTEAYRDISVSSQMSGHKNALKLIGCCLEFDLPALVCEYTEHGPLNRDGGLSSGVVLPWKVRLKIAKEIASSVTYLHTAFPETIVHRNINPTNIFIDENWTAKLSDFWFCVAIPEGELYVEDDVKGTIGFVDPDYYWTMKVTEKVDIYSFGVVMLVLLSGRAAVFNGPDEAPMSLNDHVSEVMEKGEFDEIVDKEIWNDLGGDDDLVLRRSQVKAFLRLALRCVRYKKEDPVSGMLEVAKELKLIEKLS
Briefly: two-hybrid; Y2H: LexA-ZED1 (wt or mutant) bait, PBL (wt or mutant) preys, no effector; X-Gal reporter plates, 30°C.

Assay [2] addresses T2, ZED1^W193G (Arabidopsis thaliana) (UniProt Q8LGB6).
T2 sequence: T1 sequence with W193G, T212V
The description is as above.

Assay [3] addresses T3, ZED1^N173D (Arabidopsis thaliana) (UniProt Q8LGB6).
T3 sequence: T1 sequence with N173D, T212V
Described as above.

Assay [4] has as its target T4, ZED1^wt (Arabidopsis thaliana) (UniProt Q8LGB6).
T4 sequence: T1 sequence with T212V
Briefly: two-hybrid; Y3H: LexA-ZED1 (wt or mutant) bait, PBL (wt or mutant) preys, HopZ1a^wt expressed from the yeast ho locus.

Assay [5] deals with T5, ZRK1/RKS1 (Arabidopsis thaliana) (UniProt Q9SVY5).
T5 sequence: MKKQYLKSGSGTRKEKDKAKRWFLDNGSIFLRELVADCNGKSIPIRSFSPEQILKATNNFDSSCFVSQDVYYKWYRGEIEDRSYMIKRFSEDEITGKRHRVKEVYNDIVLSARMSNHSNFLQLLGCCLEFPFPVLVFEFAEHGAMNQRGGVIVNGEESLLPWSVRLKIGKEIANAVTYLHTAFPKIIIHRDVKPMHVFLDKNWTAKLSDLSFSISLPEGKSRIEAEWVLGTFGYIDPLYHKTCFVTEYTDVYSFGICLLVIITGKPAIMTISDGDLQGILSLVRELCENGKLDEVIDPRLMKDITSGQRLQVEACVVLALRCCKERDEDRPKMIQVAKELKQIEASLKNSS
The assay is described as follows: two-hybrid; Y2H: LexA-ZRK1/RKS1 bait, 46 PBL preys, no AvrAC; X-Gal reporter plates, 30°C.

Assay [6] concerns the target T4, ZED1^wt (Arabidopsis thaliana). The assay is described as follows: two-hybrid; Y3H: LexA-ZED1 bait, 46 PBL preys, HopZ1b expressed from the ho locus.

Positions count from the first letter of the chain named. Results are given in words; binding and its absence hold for the method and conditions named. Some results given as binding are weak or reduced against the parent protein; the word gives no strength.

B1: PBL18 (protein, UniProt Q5XF79 1-387)
chain: MGNCLDSSARVGNRESTFGGSSRISRKPNQSSRLSSLTIPSYSNNSFTTSSWSNLTPRSEGELLPSPTLKAFTFNELKTATRNFKPNSMIGEGGFGCVYKGWIGERSLSPSKPGSGMVVAVKKLKSEGFQGHKEWLTEVHYLGRLHHMNLVKLIGYCLEGEKRLLVYEYMPKGSLENHLFRRGAEPIPWKTRMKVAFSAARGLSFLHEAKVIYRDFKASNILLDVDFNAKLSDFGLAKAGPTGDRTHVTTQVIGTQGYAAPEYIATGRLTSKSDVYSFGVVLLELLSGRPTLDKSKVGVERNLVDWAIPYLVDRRKVFRIMDTKLGGQYPHKGACAAANIALRCLNTEPKLRPDMADVLSTLQQLETSSKKMGSTQNIVMSPSSHMS
Consider B1, for which the binding entry in assay [1] is listed as “binds”; in assay [2], “binds”; in assay [3], “binds”; in assay [4], “binds weakly”.

B2: PBL4 (protein, UniProt Q5PP29 1-412)
chain: MGNCFGFSAKVGNRESPYRGSSRISAKRSQSSRLSSLTIQSSSYNDDTSVASLQTPRSEGELLASPTLKAFTFNELKTATRNFRPDSVIGEGGFGYVYKGWIDERTLSPSKPGSGMVVAVKKLKEEGFQGHRQWLAEVDCLGRLHHMNLVKLIGYCSKGDHIRLLVYEYMPKGSLENHLFRRGAEPIPWRTRIKVAIGAARGLAFLHEAQVIYRDFKASNILLDSEFNAKLSDFGLAKVGPTGDRTHVSTQVMGTQGYAAPEYVATGRITAKSDVYSFGVVLLELLSGRLTVDKTKVGVERNLVDWAIPYLGDKRKVFRIMDTKLGGQYPHKGACLTANTALQCLNQEPKLRPKMSDVLSTLEELEMTLKSGSISNSVMKLTSSSSSFTAKQRVRTPVADPVLSSRRCRRVR
For B2, the binding entry in assay [1], in assay [2], in assay [3] and in assay [4] was “binds” throughout.

B3: PBL15 (protein, UniProt Q9SY91 1-424)
chain: MRDSSTTASTKSSPLWKPFASNCCSVDDQTVFGNLSRCRPSRSEFSKNHLGPLPSFRRLSFADLSRSSSARINEDLAQTLGADLVDFQMCELKMITQSFSGNYLLGEGGFGKVYKGYVDDYLRQSLKAQPVAVKLLDIEGLQGHREWLSEVIFLGQLKHPNLVKLIGYCCEEEERVLIYEFMPRGSLENHLFRRISLSLPWATRLKIAVAAAKGLAFLHDLESPIIYRDFKTSNILLDSDFTAKLSDFGLAKMGPEGSKSHVTTRVMGTYGYAAPEYVSTGHLTTKSDVYSYGVVLLELLTGRRATEKSRPKNQQNIIDWSKPYLTSSRRLRCVMDPRLAGQYSVKAAKDTALLALQCVSPNPKDRPKMLAVVEALESLIHYKDMAVSSGHWPLSPKSQGGKVSPKVRGDHRSGRKSAPGSLRS
On to B3, for which the binding entry in assay [5], in assay [1], in assay [2], in assay [3], in assay [6] and in assay [4] was “binds” each time.

B4: PBL27 (protein, UniProt Q1PDV6 1-513)
chain: MSGCLPCFGSSAKDAASKDSVKKELSAKDGSVTQSHHISLDKSKSRRGPEQKKELTAPKEGPTAHIAAQTFTFRELAAATKNFRPECLLGEGGFGRVYKGRLETTGQIVAVKQLDRNGLQGNREFLVEVLMLSLLHHPNLVNLIGYCADGDQRLLVYEYMPLGSLEDHLHDLPPDKEPLDWSTRMTIAAGAAKGLEYLHDKANPPVIYRDLKSSNILLGDGYHPKLSDFGLAKLGPVGDKTHVSTRVMGTYGYCAPEYAMTGQLTLKSDVYSFGVVFLELITGRKAIDNARAPGEHNLVAWARPLFKDRRKFPKMADPSLQGRYPMRGLYQALAVAAMCLQEQAATRPLIGDVVTALTYLASQTFDPNAPSGQNSRSGSGPPFIRTRDDRRSLGDGSSLDSPAETRSRLGSPATHKNSPDYRRRDMVREVNAGSEGGSETGGGSGRKWGLSDLEGQESQRGSPASVGRSSRGTPRNRDLDRERAVAEAKVWGENWRERKRATNGPGSFDSTND
Consider B4, for which the binding entry in assay [1], in assay [2], in assay [3], in assay [6] and in assay [4] was “binds” throughout.

B5: PBL17 (protein, UniProt Q8H1E3 1-442)
chain: MGICFSAEDQHYQFSQQQNYPKKTTPGKKAAVYLMKSDCEDVVGKVSGSGSGGGGLPLAPKNIKDLQSNPGYENVDIFTYEEMKIATKQFRPDYILGEGGFGVVYKGVIDESVRVGFKSTKVAIKELNPEGFQGDREWLAEVNYLGQLSHPNLVKLIGYCCEDDHRLLVYEYMAMGSLEKHLFRRVGCTLTWTKRMKIALDAAKGLAFLHGAERSIIYRDLKTANILLDEGYNAKLSDFGLAKDGPRGDQTHVSTRVMGTYGYAAPEYVMTGHLTSRSDVYGFGVLLLEMLLGKRAMDKSRACREHNLVEWARPLLNHNKKLLRIIDPRMDGQYGTKALMKVAGLAYQCLSQNPKGRPLMNHVVEVLETLKDDGDAQEEVMTNLHSRGKSVTLYEASSDSQGTRDGNGQRRRRPESGRSKSEAAVDTEKYVSTLSEPDTTKI
Turning to B5, the binding result in assay [5], in assay [1], in assay [2], in assay [3], in assay [6] and in assay [4] was “binds” throughout.

The record behind these values is article PMC6634424.
